From publication PMC10668032 come the findings set out here.

Some of the results follow. At the low end of the ranking, values are background and their order means little.

This assay deals with SIX1-Q177R homeodomain (UniProt Q15475). Description: universal protein binding microarray. To be noted: Universal all-10-mer PBM (8x60K, AMADID 030236), 300 nM GST-tagged protein, Alexa Fluor 488 anti-GST; buffer, salt, pH and temperature not stated; high values mean tight binding; most listed sequences are background and not binding sites; double strand, one strand shown.
With CCGGACCG, the binding signal is -0.0778 E-score.

In the case of ATCTCGAC, the binding signal was -0.19 E-score.

Turning to CGACTACA, the binding signal stood at 0.098 E-score.

For GCGCATTA, the binding signal stood at 0.113 E-score.

Turning to AAGCTACA, the binding signal was 0.178 E-score.

Turning to CCAATCGC, the binding signal was 0.0213 E-score.

As for ATTCTGCC, the binding signal is -0.291 E-score.

With ACCGCGGT, the binding signal turned out to be 0.187 E-score.

For the sequence GGTGTCTA, the binding signal amounted to 0.468 E-score.

With GGGCTTAC, the binding signal came to 0.0465 E-score.

Regarding CTAACATA, the binding signal was -0.221 E-score.

As for CCACCGCC, the binding signal was found to be 0.136 E-score.

As to ACCGGAGC, the binding signal was determined as 0.0343 E-score.

In the case of GATACTGA, the binding signal is 0.12 E-score.

CGCGACGA: the binding signal was -0.309 E-score.

As for TCCGCTCA, the binding signal was -0.0184 E-score.

For AATTCGCT, the binding signal is -0.191 E-score.

Consider ATCCCCAG, for which the binding signal stood at 0.04 E-score.

For the sequence AGAACACA, the binding signal was 0.249 E-score.

In the case of CTTTGCGC, the binding signal was -0.0123 E-score.

Turning to GGAATGAA, the binding signal is -0.114 E-score.

Take GGAGTTCA: the binding signal was determined as 0.0916 E-score.

For TCTCAGCA, the binding signal is -0.142 E-score.

In the case of AACCGCGC, the binding signal was -0.0865 E-score.

For CAGCGTGA, the binding signal was found to be 0.0115 E-score.

For the sequence CCTGCATC, the binding signal is -0.136 E-score.

For ACAGCACT, the binding signal is -0.0576 E-score.

In the case of CGGGATAG, the binding signal was -0.0896 E-score.

Consider GCGACTGA, for which the binding signal was -0.289 E-score.

ACCCAGTA: the binding signal worked out at 0.175 E-score.

On to GACAACGC, for which the binding signal is -0.124 E-score.

Take GCGTTTTA: the binding signal came out at 0.0462 E-score.

Take ACTCTCCC: the binding signal came to 0.163 E-score.

With GTACCATA, the binding signal was 0.096 E-score.

As to CTATGTTC, the binding signal is -0.0811 E-score.

Consider CATGACAC, for which the binding signal was 0.473 E-score.

As to GATATGTA, the binding signal is -0.208 E-score.

AACTAATT: the binding signal is -0.183 E-score.

GCGGACGA: the binding signal is -0.00224 E-score.

As for AAAAGTTC, the binding signal was -0.251 E-score.

In the case of ACTTTATA, the binding signal is -0.0635 E-score.

For the sequence CCTCTGAA, the binding signal came out at 0.0604 E-score.

Take TAAGCACA: the binding signal worked out at 0.141 E-score.

Turning to CCGGCCCG, the binding signal came out at 0.141 E-score.

In the case of GCCCATCC, the binding signal is 0.101 E-score.

As for CATAACTA, the binding signal turned out to be 0.0581 E-score.

On to AGTCGTTG, for which the binding signal was -0.218 E-score.

On to AATCACCT, for which the binding signal is -0.0811 E-score.

As for GAACACGC, the binding signal was determined as 0.393 E-score.

Consider AGCCGCAA, for which the binding signal is -0.176 E-score.

Take CTCCACCA: the binding signal amounted to 0.147 E-score.

Take TCTTTCCA: the binding signal was -0.218 E-score.

On to CTCGGCTC, for which the binding signal was -0.177 E-score.

As for GACGGAAA, the binding signal was -0.31 E-score.

As for ATCGTCGC, the binding signal is -0.0464 E-score.

For the sequence AAGACCTT, the binding signal is -0.257 E-score.

On to ATTATTGG, for which the binding signal was -0.118 E-score.

On to TCTGGACA, for which the binding signal is 0.0927 E-score.

Take ATCAGAGG: the binding signal is -0.202 E-score.

As for CTAACGGC, the binding signal was -0.181 E-score.

TCCATGGA: the binding signal is 0.16 E-score.

Turning to GGGAGTAA, the binding signal is 0.225 E-score.

Regarding CAAGCGCA, the binding signal is -0.0604 E-score.

As for ACTCCAAG, the binding signal worked out at 0.2 E-score.

TAGGCATA: the binding signal was -0.0263 E-score.

With GCAGGGGA, the binding signal turned out to be 0.00588 E-score.

Regarding GTTCACCA, the binding signal was -0.136 E-score.

For CAAGACAA, the binding signal is -0.194 E-score.

Turning to TAGAATCA, the binding signal was -0.109 E-score.

With GCGCTTAA, the binding signal was -0.185 E-score.

Regarding CACAGGTG, the binding signal amounted to 0.307 E-score.

On to CTGGGATC, for which the binding signal turned out to be 0.0802 E-score.

In the case of AGTTAAGG, the binding signal came out at 0.146 E-score.

For AATGTTCA, the binding signal is -0.194 E-score.

In the case of GCTCCCAA, the binding signal was -0.22 E-score.

Consider GAGAGGGA, for which the binding signal is -0.19 E-score.

Turning to CCACTGGC, the binding signal was -0.141 E-score.

On to TCACGCCA, for which the binding signal is -0.0678 E-score.

In the case of CGGGGCAA, the binding signal was -0.0457 E-score.

For the sequence AACCCAGC, the binding signal is -0.06 E-score.

As for AGTCCCTC, the binding signal is -0.133 E-score.

Consider AAAAGTGG, for which the binding signal was -0.121 E-score.

In the case of CACCACTA, the binding signal worked out at 0.349 E-score.

Consider AGATAGCG, for which the binding signal was -0.165 E-score.

As for GGTAGACA, the binding signal was found to be 0.139 E-score.

Consider ACGAGTGA, for which the binding signal came to 0.0845 E-score.

For GCGGGCAA, the binding signal was -0.13 E-score.

As for AACAAACT, the binding signal is -0.135 E-score.

GTGAGTGA: the binding signal was -0.00624 E-score.

For CATTCAAG, the binding signal was -0.127 E-score.

Consider AAACGATA, for which the binding signal is -0.0934 E-score.

CATAAGAC: the binding signal is -0.0698 E-score.

On to GGGTACAA, for which the binding signal is 0.17 E-score.

GCTTTAGA: the binding signal was -0.151 E-score.

On to CGATCAGA, for which the binding signal was -0.17 E-score.

On to AGCTTACG, for which the binding signal was -0.101 E-score.

Take CCACCACG: the binding signal was found to be 0.0217 E-score.

Take GGCCGACC: the binding signal is -0.00408 E-score.

As to GAATATAC, the binding signal is -0.199 E-score.

On to AGTGAGGC, for which the binding signal is -0.119 E-score.

As for AGCTTATG, the binding signal is -0.0459 E-score.

In the case of ATCAGCTC, the binding signal is -0.0842 E-score.

For the sequence TTAAGAAA, the binding signal was -0.138 E-score.

On to AAAGCTTG, for which the binding signal is -0.229 E-score.

For the sequence CTAGTTAC, the binding signal was found to be 0.0699 E-score.

With AATTCAGG, the binding signal was -0.00288 E-score.

CAAGGGTC: the binding signal was found to be 0.00995 E-score.

As to GATCGATC, the binding signal turned out to be 0.1 E-score.

Take ACTCCTAT: the binding signal was 0.0321 E-score.

Take CCGACTCG: the binding signal came out at 0.159 E-score.

Take CATATACG: the binding signal is -0.0839 E-score.

For the sequence AAGACAGA, the binding signal was -0.0625 E-score.

As to AGATCCTG, the binding signal is -0.071 E-score.

On to TGGGAAAA, for which the binding signal was -0.266 E-score.

As for CCCGACAG, the binding signal is -0.0511 E-score.

Consider CGTCAAGA, for which the binding signal was -0.192 E-score.

In the case of ACGCTAAA, the binding signal is -0.159 E-score.

For the sequence CTATCTTA, the binding signal is -0.226 E-score.

Take CGAGGACC: the binding signal is -0.0476 E-score.

For GAGGAACA, the binding signal was 0.0209 E-score.

Regarding CATTCTCA, the binding signal was -0.114 E-score.

Regarding CGCACACG, the binding signal worked out at 0.24 E-score.

Regarding CTCAACGA, the binding signal was -0.0294 E-score.

For CAATACCC, the binding signal stood at 0.218 E-score.

Turning to GAACTAAA, the binding signal was -0.0185 E-score.

As to CGAGACCG, the binding signal is 0.0608 E-score.

AACGCGCG: the binding signal was -0.117 E-score.

As for CTCATCAG, the binding signal came to 0.0668 E-score.

Take TCCTAGCA: the binding signal amounted to 0.123 E-score.

CAGAAACG: the binding signal was -0.165 E-score.

On to ATAGACGG, for which the binding signal is -0.0634 E-score.

Take GAAGCTTA: the binding signal was -0.126 E-score.

Take CGGGTAAA: the binding signal was determined as 0.194 E-score.

Take AAACTGCC: the binding signal was -0.132 E-score.

Turning to CCCTAAAA, the binding signal was -0.0645 E-score.

Regarding CGCAAGCA, the binding signal was -0.0492 E-score.

On to CAATCGTG, for which the binding signal came to 0.076 E-score.

Turning to ACCGACGC, the binding signal worked out at 0.133 E-score.

GATAGCCC: the binding signal is -0.207 E-score.

For the sequence AAGGGTTC, the binding signal worked out at 0.103 E-score.

Regarding TATTAACA, the binding signal is 0.0995 E-score.

Turning to CTAACTCA, the binding signal was -0.23 E-score.

For GTCAGCCA, the binding signal was -0.0468 E-score.

As for AAATTTGT, the binding signal was -0.287 E-score.

In the case of GGCCCCTA, the binding signal is -0.208 E-score.

On to CAACATCC, for which the binding signal was -0.206 E-score.

Regarding AAGGGAAG, the binding signal was -0.203 E-score.

With ACAACGCG, the binding signal is -0.217 E-score.

With ACACCCAA, the binding signal turned out to be 0.454 E-score.

Consider CCACCGTA, for which the binding signal is -0.0617 E-score.

Take GTGGTAAA: the binding signal was determined as 0.00294 E-score.

AAAAAGGG: the binding signal was -0.0621 E-score.

With AAAGCAGA, the binding signal was -0.229 E-score.

Take AACCAAAG: the binding signal was -0.0434 E-score.

CAGCGAGC: the binding signal was -0.0716 E-score.

For the sequence ATATGGGA, the binding signal is 0.00717 E-score.

For the sequence CGCATATC, the binding signal was -0.071 E-score.

With CCAAATTC, the binding signal is -0.103 E-score.

For the sequence TACCATCA, the binding signal amounted to 0.113 E-score.

For AGGCTTGA, the binding signal was -0.179 E-score.

As for AGATATCC, the binding signal amounted to 0.0614 E-score.

For the sequence GCGCAAAA, the binding signal was determined as 0.097 E-score.

With CGCGAGTC, the binding signal worked out at 0.107 E-score.

As for CCACACAA, the binding signal is -0.0479 E-score.

As for ATACTGCG, the binding signal was -0.00343 E-score.

Regarding AACCAAGA, the binding signal was determined as 0.118 E-score.

In the case of CGGACCAG, the binding signal stood at 0.0306 E-score.

On to CTTCGTAC, for which the binding signal was -0.0798 E-score.

ACACATCA: the binding signal was 0.0704 E-score.

For the sequence CATAGGGG, the binding signal was 0.042 E-score.

As for GGTGCGCA, the binding signal came out at 0.157 E-score.

Consider CCCGACTC, for which the binding signal was determined as 0.147 E-score.
